Data published in PubChem BioAssay AID624417 (National Center for Advancing Translational Sciences (NCATS), 2012).
Screen size: about 410,000 compounds; about 6,400 (1.6%) were called active. This list was built around the results that the source calls inconclusive (neither active nor inactive); the mix of calls is not that of the screen. Calls come from the whole dose curve; as a rule, active = well fitted inhibition curve with a large enough effect; inconclusive = small, poorly fitted or top-dose-only effect; inactive = no such curve, though single readings can be large or run the other way. No potency is given beside an inconclusive call; the fits are too rough.

target: Glucagon-like peptide 1 receptor (Homo sapiens) (UniProt P43220); test: qHTS of GLP-1 Receptor Inverse Agonists (Inhibition Mode); details: HEK293 GLP-1R CRE-luciferase, luminescence, 24 h, GLP-1R form is constitutively active; activity change, negative = inhibition: at 38.3 µM (top of the series) unless noted; note: nearly all actives have a fitted effect of over 55% in size
Sequence of UniProt P43220 (P43220 whole entry, looked up): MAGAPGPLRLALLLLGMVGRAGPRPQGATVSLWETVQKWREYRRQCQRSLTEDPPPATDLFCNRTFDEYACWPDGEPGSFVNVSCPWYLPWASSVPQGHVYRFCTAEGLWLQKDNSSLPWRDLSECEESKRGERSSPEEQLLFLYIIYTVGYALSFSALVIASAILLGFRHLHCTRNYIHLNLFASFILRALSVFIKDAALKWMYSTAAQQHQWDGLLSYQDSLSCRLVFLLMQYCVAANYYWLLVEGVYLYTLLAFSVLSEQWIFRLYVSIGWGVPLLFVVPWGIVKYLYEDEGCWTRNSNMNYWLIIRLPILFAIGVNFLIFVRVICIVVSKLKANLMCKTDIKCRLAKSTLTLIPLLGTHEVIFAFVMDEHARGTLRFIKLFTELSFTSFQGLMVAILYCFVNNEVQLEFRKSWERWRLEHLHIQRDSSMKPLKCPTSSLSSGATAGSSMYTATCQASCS
Method in brief: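 HEK293 cells stably co-expressing constitutively active GLP-1R and a cAMP-responsive luciferase reporter were seeded in DMEM with 10% Nu serum, given compounds after 12 h, and incubated 24 h at 37 deg C. Luminescence was then read.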
% is set by controls: 0 for no effect and ±100 for the full control effect; potency is the fitted concentration of half-maximal effect; tags give direction and shape of the fitted curve.

Row | SMILES | Potency | activity change, negative = inhibition
1 | Cc1ccc(S(=O)OCC(=O)Nc2cc(Cl)ccc2N2CCOCC2)cc1 (stereo unspecified) | inconclusive [inhibitor, partial curve, poor fit] | 
2 | CCOc1ccc(-c2noc(-c3ccncc3)n2)cc1OCC |  | inactive: 42.2%
3 | COc1ccccc1CNC(=O)C(=O)NCCC1CCCCN1S(=O)(=O)c1cccs1 (stereo unspecified) | inconclusive [inhibitor, single point] | 
4 | O=C(Cc1cccs1)NCCSc1c(-c2ccc(Cl)cc2)[nH]c2ccccc12 | inconclusive [inhibitor, partial curve, poor fit] | 
5 | CSCCC(NC(=O)COc1ccccc1)C(=O)N1CCN(c2ccccc2O)CC1 (stereo unspecified) |  | inactive: -10.3%
6 | O=C(CSc1nnc(Cc2ccccc2)o1)NC1CC2CCC1C2 (stereo unspecified) | inconclusive [inhibitor, partial curve] | 
7 | Clc1ccc(Cn2nnc(-c3ccccc3)n2)cc1 | inconclusive [inhibitor, single point] | 
8 | O=C(COC(=O)c1cc(Cl)ccc1[N+](=O)[O-])NCc1ccc(Cl)cc1Cl | inconclusive [inhibitor, single point] | 
9 | O=S(=O)(NCC(c1ccco1)N1CCN(c2ccc(F)cc2)CC1)c1ccccc1 (stereo unspecified) | inconclusive [inhibitor, single point] | 
10 | Cc1ccc(-n2nc3c(c2NC(=O)/C=C\c2ccc4c(c2)OCO4)CSC3)c(C)c1 | inconclusive [inhibitor, single point] | 
11 | CCOc1ccccc1N(C(=O)c1ccccc1Cl)C1=NC(C)(C)CS1 | inconclusive [inhibitor, single point] | 
12 | CCOc1cc(C=NNC(=O)N(c2ccccc2)c2ccccc2)ccc1O | inconclusive [inhibitor, partial curve, poor fit] | 
13 | O=[N+]([O-])c1cccc(/C=N/N2CCN(c3ccccn3)CC2)c1 |  | inactive: 51.9%
14 | COc1ccc2nc(NC(=O)c3ccc(S(=O)(=O)N4CCC(C)CC4)cc3)sc2c1 |  | inactive: 22.8%
15 | COC(=O)c1ccccc1NC(=O)c1noc2c1CSc1ccccc1-2 |  | inactive: 7.17%
16 | CC(=O)Nc1ccc(NC(=S)NC(=O)/C=C/c2ccco2)cc1 |  | inactive: 6.71%
17 | CC(C)(C)C(=O)Nc1ccccc1C(=O)OCC(=O)c1ccc2c(c1)OCCO2 | inconclusive [inhibitor, single point] | 
18 | Cc1cccc(C)c1OCCCCn1c(C2CC(=O)N(c3ccc(F)cc3)C2)nc2ccccc21 (stereo unspecified) | inconclusive [inhibitor, partial curve, poor fit] | 
19 | CCCSc1cc(N2CCN(C)CC2)nc(-c2ccc(OC)cc2)n1 | active: 8.91 µM | 
20 | CC12CCC(C(=O)NNc3ccccc3)(C(=O)C1=O)C2(C)C (stereo unspecified) | inconclusive [inhibitor, full curve, poor fit] | 
21 | Cc1cc(NC(=O)Nc2ccc(Cl)c(Cl)c2)n(-c2ccccc2)n1 | inconclusive [inhibitor, single point] | 
22 | COc1cc(-c2cc(C(=O)Nc3cccc(C(C)=O)c3)c3ccccc3n2)cc(OC)c1OC | inconclusive [inhibitor, single point] | 

Row | SMILES | Potency | activity change, negative = inhibition
23 | CCC(Cc1ccccc1)NC(=O)c1oc(=O)c2ccccc2c1-c1ccccc1 (stereo unspecified) | inconclusive [inhibitor, single point] | 
24 | NC(=S)NCc1cccnc1 |  | inactive: 2.95%
25 | Cc1nonc1CN(C)C(=O)c1cc(COc2ccc(F)cc2Cl)on1 | inconclusive [inhibitor, single point] | 
26 | O=C(COc1cccc(NC(=O)c2ccco2)c1)c1ccc(F)cc1 | inconclusive [inhibitor, partial curve, poor fit] | 
27 | COc1cc2[nH]c(=O)n(CCC(=O)N3CCC(N4CCCCC4)CC3)c(=O)c2cc1OC |  | inactive: 3.97%
28 | CC1=NNC(=O)/C1=C\c1cn(-c2ccccc2)nc1-c1ccccc1 | inconclusive [inhibitor, single point] | 
29 | O=c1c2ccccc2oc2cc(-c3ccc4[nH]ccc4c3)ccc12 | inconclusive [inhibitor, full curve, poor fit] | 
30 | OCCn1ccc(-c2ccccc2OCc2ccc(F)cc2)n1 | inconclusive [inhibitor, full curve, poor fit] | 
31 | CSc1ccccc1C(=O)C1CCCN(C(=O)c2cccc(Cn3cccn3)c2)C1 (stereo unspecified) | inconclusive [inhibitor, single point] | 
32 | Cc1nc(N)nc(N)c1-c1ccc(Cl)c(Cl)c1 | inconclusive [inhibitor, full curve, poor fit] | 
33 | COc1ccc(C(=O)NCCc2nnc3ccc(SCC(=O)NCc4ccccc4)nn23)cc1 |  | inactive: 1.73%
34 | CCCCNC(=S)NC(=O)c1ccccc1Br | inconclusive [inhibitor, single point] | 
35 | COc1ccc(-c2noc(CN(C(=O)c3ccc4c(c3)OCO4)C(C)C)n2)cc1 | inconclusive [inhibitor, full curve] | 
36 | CC(=O)c1ccc(N2CCN(C(=O)c3ccc4[nH]c(C)c(C)c4c3)CC2)cc1 | inconclusive [inhibitor, single point] | 
37 | CCC(=O)Nc1sc2c(c1C(=O)Nc1ccccc1C)CCC(C)C2 (stereo unspecified) |  | inactive: 1.27%
38 | CCCCN1C(=S)NC[C@@H]1c1ccccc1 | inconclusive [inhibitor, single point] | 
39 | CC1(C)CC(=O)C2=C(C1)NC(SCC(=O)Nc1ccccc1)=C(C#N)C21CCCCC1 | inconclusive [inhibitor, partial curve, poor fit] | 
40 | CCOC(=O)C1CCC(CN(Cc2ccccc2C)S(=O)(=O)c2ccc([N+](=O)[O-])cc2)CC1 (stereo unspecified) | inconclusive [inhibitor, partial curve] | 
41 | COc1ccc(OC)c(-c2csc(NC(=O)CSc3ccc(Br)cc3)n2)c1 | inconclusive [inhibitor, single point] | 
42 | S=C(NC1CCCCC1)N1CCc2[nH]c3ccccc3c2C1 | inconclusive [inhibitor, partial curve, poor fit] | 
43 | Cc1ccc2nc(C)cc(Nc3ccc4c(c3)OCCO4)c2c1 | inconclusive [inhibitor, partial curve, poor fit] | 
44 | Cc1ccc(C(=O)NC(=C(Cl)Cl)S(=O)(=O)c2ccc(C)cc2)cc1 | inconclusive [inhibitor, single point] | 

Row | SMILES | Potency | activity change, negative = inhibition
45 | O=C(NCCc1ccccn1)c1ccc(OC2CCN(Cc3ccccn3)CC2)cc1 | inconclusive [inhibitor, partial curve, poor fit] | 
46 | COc1cc(Cn2c(=O)oc3ccc(C)cc32)ccc1OCCC(C)C | inconclusive [inhibitor, partial curve, poor fit] | 
47 | Cc1cn(C)c(CC(=O)NCc2cccc(Cl)c2)c1C(=O)O |  | inactive: 3.36%
48 | CCN(CC)CCCNc1nc2cc(OC)c(OC)cc2c2nc(-c3ccccc3)nn12 | inconclusive [inhibitor, partial curve, poor fit] | 
49 | Cc1cc(C)cc(Nc2cc(=O)n(C3CCCCC3)c(=O)[nH]2)c1 | inconclusive [inhibitor, single point] | 
50 | Cc1[nH]c2ccccc2c1N=Nc1cccc(C(=O)O)c1 |  | inactive: 0.499%
51 | CC12CNCC(C)(CN(C(c3ccccc3)c3ccccc3)C1)C2 | inconclusive [inhibitor, partial curve, poor fit] | 
52 | Cc1cc(C)cc(OCC(=O)Nc2cccc(S(=O)(=O)NC3=NCCC3)c2)c1 | inconclusive [inhibitor, partial curve, poor fit] | 
53 | Cn1c(SCC(=O)N2c3ccccc3Sc3ccccc32)nc2ccccc21 | inconclusive [inhibitor, single point] | 
54 | O=S(=O)(c1ccc(F)cc1)N1CCN(Cc2ccccc2C(F)(F)F)CC1 | inconclusive [inhibitor, single point] | 
55 | O=C(O)CC(C(=O)OCC1CCCO1)N1CCOCC1 (stereo unspecified) |  | inactive: 0.779%
56 | O=C1NC(=O)c2cc3ccccc3cc21 |  | inactive: 0.107%
57 | CCN(CC)c1ccc(C=Nc2ccc(OC)c(S(=O)(=O)N3CCOCC3)c2)c(O)c1 |  | inactive: 8.73%
58 | O=C(Nc1ccccc1Cl)C1CCCN(S(=O)(=O)c2cccc3cccnc23)C1 (stereo unspecified) | inconclusive [inhibitor, single point] | 
59 | CC1CCCCN1C(=O)COC(=O)c1cc(-c2cccs2)nn1-c1ccccc1 (stereo unspecified) | inconclusive [inhibitor, partial curve, poor fit] | 
60 | CCCc1ccc(C(O)c2ncc(-c3cccc(OC)c3)[nH]2)cc1 (stereo unspecified) | inconclusive [inhibitor, single point] | 
61 | CCC1CSC(Nc2ccc(C(=O)/C=C/c3ccc(Oc4ccccc4)cc3)cc2)=N1 (stereo unspecified) | inconclusive [inhibitor, full curve, poor fit] | 
62 | OC12CCCCC1C(c1ccc3c(c1)OCO3)N(Cc1cccc(F)c1)CC2 (stereo unspecified) | inconclusive [inhibitor, single point] | 
63 | O=C(N/N=C/c1cc(Cl)cc([N+](=O)[O-])c1O)NC12CC3CC(CC(C3)C1)C2 | inconclusive [inhibitor, full curve] | 
64 | CCCCCc1nc2sc3c(c2c(=O)n1N)CCC3 |  | inactive: 1.38%
65 | Cc1ccc2c(CN3CC(C)CC(C)C3)cc(=O)oc2c1C (stereo unspecified) |  | inconclusive: -33.5% [inhibitor]
66 | CCC(C)c1ccc(OCC(=O)Nc2cccc3ccc(C)nc23)cc1 (stereo unspecified) |  | inactive: -19.6%
